Whole data set: some 33,000 sequences, median “E-score (-0.5 to 0.5)” near -0.04, cut for the highest 2% near 0.36. Some of the results follow.
Target: T1, Hmlalpha2 (UniProt P0CY09)
T1 sequence: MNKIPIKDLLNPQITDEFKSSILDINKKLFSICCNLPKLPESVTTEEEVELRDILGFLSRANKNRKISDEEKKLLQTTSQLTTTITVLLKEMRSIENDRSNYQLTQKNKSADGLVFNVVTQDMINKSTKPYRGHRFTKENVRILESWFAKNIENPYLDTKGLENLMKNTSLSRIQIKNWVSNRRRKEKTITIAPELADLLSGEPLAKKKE
Assay: PBM E-score (8-mer binding enrichment) (E-score (-0.5 to 0.5)); higher = stronger / more preferred TF binding; most listed sequences are background and not binding sites
Details: protein concentration: 200 nM; construct: GST-full length
Protocol: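 Universal 'all 10-mer' protein binding microarrays (Agilent AMADID 015681) probed with GST-tagged S. cerevisiae TFs (full-length or DBD) made by in vitro transcription/translation (PURExpress), about 100-200 nM. Bound TF was detected with fluorescent anti-GST. Each ungapped 8-mer (which stands for itself and its reverse complement) is scored by the PBM enrichment score (E-score), a modified Wilcoxon-Mann-Whitney statistic from -0.5 to +0.5, computed with the Universal PBM Analysis Suite. Scale: above 0.35 generally sequence-specific binding.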

Sequence | PBM E-score
AATGTACG | 0.108
AGTATAGA | 0.00337
ACAGTTCC | -0.15
ACTACTAC | 0.147
ATCGTCTC | -0.193
AGCTCGTA | 0.0514
TGCATGCA | 0.229
CTTGTACC | 0.0814
GCTTTCCC | -0.264
TACAGCGA | 0.00752
CGGGTGTA | 0.174
ATTCAATG | 0.0714
AAATGGCT | -0.121
AAGGTTAC | -0.0396
GCCCGGCA | -0.308
ATGGGAGG | -0.294
CTCAACGA | 0.072
ATGACGCA | 0.155
CGTGGCAC | 0.0886
GAATCCTC | -0.386
CCCAGCTC | -0.345
CAGAGTCC | -0.111
CCCTAGCC | -0.371
ACGTACAA | 0.273
CTTTAGGC | -0.167

Sequence | PBM E-score
AAGGTCGG | -0.193
AGCTTCTA | -0.132
AATAAGTG | -0.00657
CCCACTAA | -0.111
ACACATCT | 0.288
ACGGGTAC | -0.0533
CTATTACC | -0.0498
AAGTAGAG | 0.018
GGGCTGAC | -0.0889
TAAAATGA | 0.155
CCAGTGGC | -0.197
ACCGACTC | -0.223
CGTTCGAC | -0.0737
TACCAGAA | -0.0654
AGAAATGA | 0.158
ATGACCCC | -0.209
CGAACATA | 0.231
CTATGTGA | 0.172
AGGTTAGC | -0.132
AGAACACA | 0.268
CAGTCAAG | -0.0797
TAGACCAA | -0.0507
GCACCTAC | -0.221
GGATCCCA | -0.189
TCAATGAA | 0.0206

Sequence | PBM E-score
AGACATAG | 0.0797
ATTGCGCC | -0.128
AGCGGCTA | -0.0688
CCGCTGAG | -0.242
GGGGGGAC | -0.232
ACTTGGAC | 0.0824
ACCTTCTC | -0.141
ACCTGCCG | -0.266
CAGTGATG | -0.04
AAAAAATC | 0.0267
GTCAGGCA | -0.0798
CAGTCGGC | -0.231
ACAAAGAG | -0.0164
ATCTACGG | 0.0209
CGGATACG | -0.0083
CCTCGTAG | 0.039
GTACTTGA | 0.208
CGCGGCAA | -0.0248
ACTACATG | 0.43
ATTTCATA | 0.113
AGTTCGTG | 0.149
CGTTGCTA | 0.134
CGTGTTGA | 0.446
CTTAACGA | 0.0642
AGCTATCG | -0.139

Sequence | PBM E-score
AGCTCACT | -0.0714
CCAGCCAA | -0.128
AGGTGCCG | -0.232
GCCGAAGC | -0.279
CCGTAGAG | -0.221
ATGCCCAG | -0.0963
CAGTAAGC | -0.0712
CGCTAAAC | 0.0834
CGGGCATC | -0.287
CGGAAGTA | -0.0569
GATAATAA | -0.0459
CCCCACCG | -0.335
GATATTGC | -0.12
AATGAGCA | 0.00557
AGCCCCAG | -0.32
CGTTCTTC | -0.049
GCGAAGAC | -0.0503
GAAAACCC | -0.0923
GTTCACCA | 0.0144
AATTCATC | -0.151
ACGGGAGA | -0.138
ATTCAAAC | 0.2
CCCAACCA | 0.0379
ACAGGTTA | 0.19
AGTAGTCG | 0.0387

Sequence | PBM E-score
ATGTCCAA | 0.116
TATGCTCA | 0.0888
TGCGTAAA | 0.441
CCTTGCAA | -0.176
GCTGTGAA | 0.0585
AGTCCGAA | 0.0171
ATAGTTGG | -0.128
GTGACGAA | 0.00439
ACCGGGAC | -0.0952
CCCAAGGG | -0.389
AATAAGAG | -0.201
AGGAGTAC | -0.0058
ACCAATGA | -0.0683
CACCATTC | -0.112
AATTTTAT | 0.191
ACCATGCT | 0.0386
CAAGTTTC | 0.0425
CTAGCTGC | -0.142
CCGCCCTC | -0.231
GCACTAGC | -0.195
AGTGCCAT | -0.0775
GACCAATA | 0.0238
GGCTGCTA | -0.0801
CCGTCGGA | -0.122
AGAGCAGC | -0.132

Sequence | PBM E-score
TCCATTCA | -0.0303
CAACTCGG | -0.273
ACCCACAA | 0.0627
GACTGACC | -0.192
AGCGGTCG | -0.31
ATGTTCTA | 0.11
AAACTTGC | 0.082
ACCTCCCA | -0.221
ATACGTCA | 0.197
ACCAGCCA | -0.0964
ATCGGCCA | -0.243
CACGTACC | 0.0169
CGTGTCAC | 0.309
GACGACGC | -0.0038
AAGGCATT | -0.0698
CCTTATTA | 0.0487
CAGGACTC | -0.099
AAAGGTGT | -0.00838
AATTGACT | 0.0311
ACCCACTC | -0.0487
CCCCAGAG | -0.309
CGCTAAGA | -0.0842
ATGCATAG | 0.0358
GCGTAAGC | 0.183
CCGTGTAG | 0.452

Sequence | PBM E-score
CAGCTATA | -0.0091
CGAATCAA | 0.162
CGCGTGCA | -0.0161
CTCAGTCC | -0.198
CAACCATA | -0.0287
CCTTGCCA | -0.119
ATACTAAG | 0.0862
GAATTCCC | -0.114
CCGAGAAA | -0.0488
ATGCTGCC | -0.0923
CTGTAGTC | -0.0729
ACTAGCAG | -0.011
AGCTCTAC | 0.0713
AGGGTCAA | -0.0604
CCAGCAGC | -0.245
ATAAGTTA | 0.239
GGTAATAC | 0.173
GTCGTAAC | 0.175
AGCCCTTA | -0.0743
ACCGATAA | 0.0677
GAAGCGCA | -0.198
GCCTCTAC | -0.161
